According to patent US20220387557A1 (OXFORD UNIVERSITY INNOVATION, published 2022):

Key:
[1] = molecular target: T1, Fc tagged human TNFR1 (Sino Biological) (human, UniProt P19438 22-211, limits assumed); experiment: SPR, Biacore T200 multi cycle kinetics, receptor-Fc captured on Protein A chip, TNF 1.25-40 nM, 1:1 model
T1 construct: Bought reagent; also called hTNFR1; hTNFR1-Fc; not shown: Fc tag of the bought protein
T1 sequence (looked up): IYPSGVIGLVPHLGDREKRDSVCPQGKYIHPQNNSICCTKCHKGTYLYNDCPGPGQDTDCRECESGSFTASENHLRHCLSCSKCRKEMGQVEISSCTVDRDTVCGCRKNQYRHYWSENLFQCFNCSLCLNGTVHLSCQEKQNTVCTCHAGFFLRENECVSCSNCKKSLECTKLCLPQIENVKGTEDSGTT
Description: Multi cycle kinetics analysis of binding to hTNFR1, hTNFR2, mTNFR1 and mTNFR2 was performed on the 10 lead variants using a Biacore T200 (serial no. 1909913) instrument running Biacore T200 Evaluation Software V3.0.1 (Uppsala, Sweden) to characterise further the binding to these receptors.
As with the single cycle kinetics, receptor binding was assessed in two separate experiments. In the first set of experiments binding to hTNFR1 (Fc2), hTNFR2 (Fc3) and mTNFR1 (Fc4) was assessed. In the second set of experiments the extent of mTNF2 (Fc4) binding was assessed using hTNFR1 (Fc2) and hTNFR2 (Fc3) as controls. All receptors were diluted in running buffer to a concentration of ˜4 μg/mL and at the start of each cycle loaded onto Fc2, Fc3 and Fc4 of a Protein A CM5 chip and captured at a flow rate of 10 μL/min to give an RU of ˜40-100. The surface was then allowed to stabilise. All kinetic data was obtained using a flow rate of 75 μl/min to minimise any potential mass transfer effects. […] The association phase of TNF was monitored for 280 seconds and the dissociation phase was measured for 2100 seconds. […] Regeneration of the Protein A surface was conducted using two injections of 10 mM glycine-HCL pH 1.5 at the end of each cycle. […]

[2] = molecular target: T2, Fc tagged human TNFR2 (Sino Biological) (human, UniProt P20333 23-257); experiment: SPR (Biacore T200) single cycle kinetics, Fc-tagged receptor captured on Protein A chip, TNF protein as analyte at 1.67-15 nM
T2 construct: Bought reagent; also called hTNFR2; hTNFR2-Fc; not shown: Fc tag of the bought protein
T2 sequence (looked up): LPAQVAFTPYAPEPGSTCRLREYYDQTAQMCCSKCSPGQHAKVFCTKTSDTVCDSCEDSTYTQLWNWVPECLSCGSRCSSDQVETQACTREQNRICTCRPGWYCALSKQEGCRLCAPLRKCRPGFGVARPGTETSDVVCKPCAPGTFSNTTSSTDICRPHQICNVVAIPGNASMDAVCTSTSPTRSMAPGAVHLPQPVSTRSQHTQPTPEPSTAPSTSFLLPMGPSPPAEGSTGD
Description: (§1) Single cycle kinetic analysis was performed using a Biacore T200 (serial no. 1909913) running Biacore T200 Evaluation Software V2.0.1 (Uppsala, Sweden). All experiments were run at 25° C. with HBS-P+ running buffer (pH 7.4) (GE Healthcare, Little Chalfont, UK).
(§2) Due to the limit in the number of available flow cells for analysis (three Fc per analysis, Fc2, Fc3 and Fc4, with Fc1 always being used as blank reference for non-specific subtraction), receptor binding was assessed in two separate overlapping runs using either: hTNFR1 (Fc2), hTNFR2 (Fc3) and mTNFR1 (Fc4), or; hTNFR1 (Fc2), […] and mTNFR2 (Fc4). Receptors were diluted in running buffer to a concentration of ˜4 μg/mL and at the start of each cycle loaded onto Fc2, Fc3 and Fc4 of a Protein A chip (GE Healthcare, Little Chalfont, UK) at a flow rate of 10 μL/min to give an RU of 40-100. The surface was then allowed to stabilise. Single cycle kinetic data was obtained at a flow rate of 45 μL/min. […] The association phase for the three injections of increasing concentrations of TNF was monitored for 240 seconds and a single dissociation phase was measured for 2700 seconds following the last injection of TNF. Regeneration of the Protein A surface was conducted using 10 mM glycine-HCl pH 1.5. The signal from the reference channel Fc1 (no receptor) was subtracted from that of Fc2, Fc3 and Fc4 to correct for differences in non-specific binding to a reference surface.
(§3) Controls were used to ensure the integrity of the receptors during the Biacore run.

[3] = molecular target: T3, Fc tagged mouse TNFR1 (Sino Biological) (mouse, UniProt P25118 22-212, limits assumed); experiment: as above
T3 construct: Bought reagent; also called mTNFR1; mTNFR1-Fc; not shown: Fc tag of the bought protein
T3 sequence (looked up): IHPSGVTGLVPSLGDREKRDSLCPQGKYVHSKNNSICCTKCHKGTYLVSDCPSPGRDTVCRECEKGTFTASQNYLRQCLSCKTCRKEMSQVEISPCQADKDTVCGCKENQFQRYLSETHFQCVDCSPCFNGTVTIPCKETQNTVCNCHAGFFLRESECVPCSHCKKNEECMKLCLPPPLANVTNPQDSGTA
Description: as §1, §2, §3

[4] = molecular target: T4, Fc tagged mouse TNFR2 (Sino Biological) (mouse, UniProt P25119 23-258); experiment: as above
T4 construct: Bought reagent; also called mTNFR2; mTNF2; not shown: Fc tag of the bought protein
T4 sequence (looked up): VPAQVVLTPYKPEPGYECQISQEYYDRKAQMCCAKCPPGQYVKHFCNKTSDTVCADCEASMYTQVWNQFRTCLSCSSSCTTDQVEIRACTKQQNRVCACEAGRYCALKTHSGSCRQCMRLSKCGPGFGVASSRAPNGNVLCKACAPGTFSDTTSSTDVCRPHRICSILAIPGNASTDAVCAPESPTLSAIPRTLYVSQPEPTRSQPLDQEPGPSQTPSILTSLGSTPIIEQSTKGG
Description: as §1, §2, §3

B1: hTNF R32W S86T, soluble protein expressed from pANT65 (ligand)
chain: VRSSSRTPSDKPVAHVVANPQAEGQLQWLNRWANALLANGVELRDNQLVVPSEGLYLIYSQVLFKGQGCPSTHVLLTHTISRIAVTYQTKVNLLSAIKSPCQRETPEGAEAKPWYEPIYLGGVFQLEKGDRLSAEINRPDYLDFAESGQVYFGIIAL
notes: Comparator mutein of Loetscher et al., made by Quikchange mutagenesis of hTNF. 'S86R' in several paragraphs is read as a misprint of S86T; also called hTNF R32W S86R (as sometimes printed); human TNF RWST; not shown: C-terminal FLAG tag and His6 tag from vector pANT65
With B1 as the binder, how does the Kd [1] read?
The Kd was 3.54 nM.

Does B1 bind [2]?
Result: no binding (tested: 15 nM)

Does B1 bind [3]?
Result: no binding (tested: 15 nM)

Does B1 bind [4]?
Result: no binding (tested: 15 nM)
